Some of the results follow.

The test system of this assay is T1, C. trachomatis L2/434/Bu expressing GFP (CTL2-GFP).
T1 construct: L2/434/Bu GFP intracellular growth in HeLa cells
The arrangement: species or system HeLa; C. trachomatis total inclusion area by high-content imaging, normalised to DMSO. The note with it: total inclusion area; 28.5 h, 10 µM; inhibitor. In a few lines: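 High-content imaging followed the bulk GFP/resorufin measurement: fixed, Hoechst-stained cells were scored for GFP inclusions and host nuclei per well. Total inclusion area and count served as growth proxies, nuclei number as the viability proxy. MIC calculation matched the bulk assay.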
`CN(C)C(=O)c1cc(-c2cccc(N(C)C)c2)cnc1NCC1CC1` [CBK076333]: the “% of control remaining” value is on record as 116.965. Turning to `O=C1CNC(=O)C2(C/C=C/C[C@H]3COCC[C@@H]3N1)CCN(Cc1ccc(Cl)cn1)CC2` [CBK292132], the “% of control remaining” value is 102.894. `CCn1cnnc1CNC(=O)N1CCCN(Cc2cccs2)CC1` [CBK305882]: the “% of control remaining” value is on record as 51.8365.

For `Cc1nc(NS(=O)(=O)/C=C/c2ccccc2)sc1C(=O)O` [CBK045553], the “% of control remaining” value is reported as 95.6433. For the compound `CCOC(=O)C(NC(=O)c1cc[nH]c(=O)c1)c1cccc(C)c1C` (stereo not shown) [CBK304174], the “% of control remaining” value was 28.4972.

In the case of `Cn1c(CO)nnc1[C@H]1C[C@@H](NC(=O)CCc2ccc(F)cc2F)C1` [CBK306796], the “% of control remaining” value came out at 47.2722. Under `CCCN1C(=O)[C@@H]2[C@@H](CCN2C(=O)C(=O)O)N(Cc2cccs2)C1=O` [CBK289277] stands 110.757; under `CCOc1ccc2[nH]c(C(=O)N(C)CCN3CCCCC3)c(C)c2c1` [CBK282699], 104.112; under `CN(Cc1ccccc1)CC(O)c1ccc2c(c1)CCCN2C(=O)c1ccccc1F` (stereo not shown) [CBK286278], 92.6087.

With `COc1ccc(S(=O)(=O)Nc2cccc(C(=O)Nc3ccc(F)cc3)c2)cc1OC` [CBK038982], the “% of control remaining” value worked out at 24.5344. As to `COc1cc(C(=O)N2CCC3(CC2)CC(=O)c2cc(CN4CCOCC4)ccc2O3)cc(OC)c1C` [CBK169182], the “% of control remaining” value amounted to 106.596. In the case of `c1cncc(CCNc2nccnc2-c2cccnc2)c1` [CBK037380], the “% of control remaining” value stood at 74.6646.

For `COc1cc(Nc2cc(-c3ccc4c(c3)OCO4)ncn2)cc(OC)c1OC` [CBK090704], the “% of control remaining” value is 95.5666. `CN1CCCC(Cc2cc(-c3ccccc3)no2)(C(=O)N(C)C)C1` (stereo not shown) [CBK281674]: the “% of control remaining” value came out at 69.3362.

For `O=[N+]([O-])c1ccc(-c2nc(NCc3cccnc3)c3ccccc3n2)cc1` [CBK264788], the “% of control remaining” value was 96.0914. Under `COc1ccc(C(=O)NC(CC(=O)O)c2ccc(OC)cc2)cc1` (stereo not shown) [CBK266188] stands 119.651. `COc1ccc(CCNC(=O)/C=C/C(=O)O)cc1OC` [CBK265373]: the “% of control remaining” value is recorded as 105.698. Turning to `O=C(c1ccccc1F)N1CCC(c2nnc3n2CCCCC3)CC1` [CBK284628], the “% of control remaining” value is 93.0653. Under `CN1CCC(N(C)Cc2coc3ccccc3c2=O)CC1` [CBK261578] stands 83.4669; under `O=C(O)c1cccc(N2N=C(c3ccccc3)CC2=O)c1` [CBK286966], 89.6297; under `Cc1cc(CNS(=O)(=O)c2cccc3nonc23)no1` [CBK062263], 92.7852. Take `O=C(c1cccnc1)N1CCN(S(=O)(=O)c2ccc([N+](=O)[O-])cc2)CC1` [CBK264300]: the “% of control remaining” value stood at 99.0304. Under `C=CCNC(=O)Cn1c(-c2ccc(OC)cc2)cc2cccnc21` [CBK285363] stands 83.9769.

For `CC(C)CC(=O)NCCn1nc(-c2ccccc2F)cc1CN(C)C` [CBK282005], the “% of control remaining” value was 121.805. Take `CCCS(=O)(=O)Nc1ccc(=O)n2c1[C@@H]1C[C@@H](CN(C(=O)c3ccc(OC)cc3)C1)C2` [CBK288711]: the “% of control remaining” value came to 113.902. Take `O=C(NCCc1ccccn1)c1ccc(Cl)cc1Cl` [CBK015946]: the “% of control remaining” value is recorded as 65.0125. Consider `CCOC(=O)c1cc(S(=O)(=O)NC2CCN(C(=O)OCC)CC2)cn1C` [CBK304665], for which the “% of control remaining” value stood at 92.7498. On to `O=C(O)c1cn(C2CC2)c2cc(N3CCN(C(=O)C4CCCO4)CC3)c(F)cc2c1=O` (stereo not shown) [CBK297139], for which the “% of control remaining” value worked out at 11.0211. For `Cn1nc(-c2ccc(F)cc2)cc1[C@H]1CN2CC[C@H]1C[C@@H]2CNS(C)(=O)=O` [CBK289109], the “% of control remaining” value amounted to 99.1262. As for `CC(C)(C)c1cc(C(=O)N2CCn3cc(C(F)(F)F)nc3C2)[nH]n1` [CBK284748], the figure is 92.9577; as for `CCCN(c1nc(C)c(Br)c(OC)n1)S(=O)(=O)c1ccc(C)cc1` [CBK028072], 8.208; as for `OC(CN1CCC2(CC1)CC(O)c1cc(F)ccc1O2)c1ccc(-c2ccccc2)cc1` (stereo not shown) [CBK286331], 51.7201. For the compound `COc1ccccc1N1CCN(C(=O)CN2C(=O)c3ccccc3C2=O)CC1` [CBK091501], the “% of control remaining” value came to 92.7889.

Consider `O=C(CN1C2CCC1CC(O)(c1ccco1)C2)N1c2ccccc2CCc2ccccc21` (stereo not shown) [CBK286168], for which the “% of control remaining” value is recorded as 113.956. Turning to `CC(=O)NCC12CC3CC(C1)CC(C(=O)O)(C3)C2` [CBK286768], the “% of control remaining” value is recorded as 71.4532.

`CC1CCc2c(sc(NC(=O)c3cc(-c4cccnc4)nc4ccc(Cl)cc34)c2C(N)=O)C1` (stereo not shown) [CBK267762]: the “% of control remaining” value is recorded as 97.4826. Regarding `Cc1ccc(C(=O)N2CN(C(=O)CNCC(C)C)CC2(C)C)cc1` [CBK089576C], the “% of control remaining” value is reported as 67.2653. Take `Cc1nccn1CCNC(=O)c1ccccc1Cn1cccn1` [CBK281979]: the “% of control remaining” value is recorded as 71.9776. Take `O=C(O)c1cccc(Sc2nc3cc(Cl)c(Cl)cc3nc2N2CCCC2)c1` [CBK093588]: the “% of control remaining” value was determined as 88.1935. On to `Cc1ccc(S(=O)(=O)N(CC(O)CN2C(=O)NC(C)(C)C2=O)c2ccccc2[N+](=O)[O-])cc1` (stereo not shown) [CBK263572], for which the “% of control remaining” value was determined as 73.4877.

These data come from article PMC12040169 (PLOS Biology, 2025).
